{"source": "the supplement of paper PMC11417369", "note": "± gives the standard deviation of the averaged measurements. Some of the results follow.", "data": [{"tested_on": "PfAP2-G AP2 domain (GST-tagged)", "assay": "gcPBM binding intensity (ln(normalized median fluorescence intensity)); higher = stronger DNA binding", "in_short": "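Binding of GST-tagged P. falciparum DNA-binding domains, expressed in E. coli and used at about 25 μg on average, was carried out for 1 h in 1× PBS containing 1% milk, 0.2 mg/ml BSA, 0.5% salmon testes DNA and 0.03% Triton X-100. The target was an Agilent 4 × 180k array of primer-extended double-stranded 36-bp intergenic genomic probes plus negative controls, read with Alexa488 anti-GST antibody at 488 nm. Binding intensity is the highest Masliner-normalised natural-log median intensity across replicate spots of either probe orientation.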", "values": [{"sequence": "CATTCCTATTATTATACACACAAATTAAGAATTCAA [CACACA_site787]", "gcPBM binding intensity (ln)": "10.1 ± 0.38"}, {"sequence": "ATATTTATTTTATAAAGTACTAAAAAATATATTATA [XGTACX_site8522]", "gcPBM binding intensity (ln)": "11 ± 0.61"}, {"sequence": "ATTTTTTTGTTAATTTGTACATAAAATTTTATTTTA [XGTACX_site7007]", "gcPBM binding intensity (ln)": "10.9 ± 0.45"}, {"sequence": "GGATAAGAGGCATATACACACAATTTAAAAAAATAA [CACACA_site4657]", "gcPBM binding intensity (ln)": "10.2 ± 0.42"}, {"sequence": "AAAAAAAAAAAAAAAACACACAAACGCTTTTTTTTT [CACACA_site4545]", "gcPBM binding intensity (ln)": "10.4 ± 0.13"}, {"sequence": "AATATATATGAAAAAAGTACTCAAGGAATAAAAAAA [XGTACX_site7720]", "gcPBM binding intensity (ln)": "11.3 ± 0.67"}, {"sequence": "CATTTAATAATAACAAGTACACAAAGATGTATAACA [XGTACX_site8315]", "gcPBM binding intensity (ln)": "11.5 ± 1"}, {"sequence": "ATGATAAATATAAGTTGTACATATATCTATGTGCAT [XGTACX_site6010]", "gcPBM binding intensity (ln)": "11.3 ± 0.85"}, {"sequence": "CATAAATACTATATATGTACGTAATTTTTAAAACAT [XGTACX_site7710]", "gcPBM binding intensity (ln)": "11.6 ± 0.83"}, {"sequence": "GGGTGCCAAATTAGCACACACATATATACCTGAATT [CACACA_site5551]", "gcPBM binding intensity (ln)": "10.2 ± 0.2"}, {"sequence": "GTTAAAAAAAGGAGAGATCTCACACAAATATATATA [GTGCAC_negctrl_site117]", "gcPBM binding intensity (ln)": "9.965 ± 0.007"}, {"sequence": "TTACAAATAATTTGTTGTACGCTTTTTTTCTTTTTT [XGTACX_site7199]", "gcPBM binding intensity (ln)": "11.7 ± 1.1"}, {"sequence": "TATATATATATATATGTGCGCATTACTTTAAGAATA", "gcPBM binding intensity (ln)": "10.3 ± 0.33"}, {"sequence": "TATTGTTATCTTTTATGTACTTAAAAAAATAAATTT [XGTACX_site4233]", "gcPBM binding intensity (ln)": "11.4 ± 1"}, {"sequence": "AAAAAGGTTATTGGTACACACATATGTATATAAATA [CACACA_site6402]", "gcPBM binding intensity (ln)": "11.3 ± 0.86"}, {"sequence": "TAATAAAACATATATACACACATTATATATACATAT [CACACA_site8495]", "gcPBM binding intensity (ln)": "9.86 ± 0.028"}, {"sequence": "TTTTTTTTTATTTGTTGTACGAGGTTTTAAAATTTT [XGTACX_site106]", "gcPBM binding intensity (ln)": "11.3 ± 0.73"}, {"sequence": "ACAATATCTAGATACACACACATATCTCTCAATCTA [CACACA_site656]", "gcPBM binding intensity (ln)": "10.08 ± 0.071"}, {"sequence": "TATAATATTCTATATGCATGTACACCATTCTTTATT [TGCATGCA_site688]", "gcPBM binding intensity (ln)": "11.4 ± 0.87"}, {"sequence": "GTAGGCATTAAAAAATGTACAAAATATTATGAATTG [XGTACX_site1615]", "gcPBM binding intensity (ln)": "10.7 ± 0.4"}, {"sequence": "TAAACACATATATAGACATGCAACTAGTTTTTATAA [TGCATGCA_site474]", "gcPBM binding intensity (ln)": "9.81 ± 0.071"}, {"sequence": "AAATCTTTGTGTGGATGTACTTTTATAAAAAAGAAT [XGTACX_site3830]", "gcPBM binding intensity (ln)": "11.3 ± 0.86"}, {"sequence": "TAATAAATAATGGTTACACACAAAATATAAAACTTA [CACACA_site3544]", "gcPBM binding intensity (ln)": "10.2 ± 0.28"}, {"sequence": "AATTATAAATCTTGCACACAAAAAAAATAATAAAAA [CACACA_site2434]", "gcPBM binding intensity (ln)": "10.2 ± 0.24"}, {"sequence": "AATTTTTAGTATATAACATAAAATAAAATAAAATAA [GTGCAC_negctrl_site696]", "gcPBM binding intensity (ln)": "9.835 ± 0.021"}, {"sequence": "TCTGTTCTTTTTTAATGTACAAGAAATATAAAATTC [XGTACX_site3600]", "gcPBM binding intensity (ln)": "11 ± 0.61"}, {"sequence": "TTTATTTAATTATGTTGTACATGTAGGATTTATTTT [XGTACX_site7078]", "gcPBM binding intensity (ln)": "11.3 ± 0.74"}, {"sequence": "TTATTTTTTTTTTTTTGTACACAATTTGACACATTA [XGTACX_site7983]", "gcPBM binding intensity (ln)": "11.5 ± 0.91"}, {"sequence": "AAAAAGGAAATAATAACACACATTAATAATTATAAA [CACACA_site3401]", "gcPBM binding intensity (ln)": "9.72 ± 0.085"}, {"sequence": "TAAAAAGTTATATTCACACACATACACATATAAATA [CACACA_site6398]", "gcPBM binding intensity (ln)": "10.07 ± 0.064"}, {"sequence": "TTATCTATAAATACGAGTACGCAAAATCATATAATA [XGTACX_site2447]", "gcPBM binding intensity (ln)": "11.6 ± 1.1"}, {"sequence": "TTTATGTGTTATAAATGTACATAATATAATTCGTAT [XGTACX_site3845]", "gcPBM binding intensity (ln)": "11.1 ± 0.7"}, {"sequence": "TTTTTATAAAATTTTATGAGCTCGGAAAAAATAAAC [GTGCAC_negctrl_site637]", "gcPBM binding intensity (ln)": "10.5 ± 0.36"}, {"sequence": "ATCTGCATATATATATGTACATATTTTAGAATGCAC [XGTACX_site708]", "gcPBM binding intensity (ln)": "11.2 ± 0.81"}, {"sequence": "TTCTTTTTAAATTACACACACATATAAATATGTATA [CACACA_site7618]", "gcPBM binding intensity (ln)": "10.04 ± 0.071"}, {"sequence": "TTTTAATATTAAGATGTCTTTTACGTTTATTTTGTA [CACACA_negctrl_site765]", "gcPBM binding intensity (ln)": "9.9 ± 0.099"}, {"sequence": "ATTTACGCGCTTATTACACACACATACAAATAAGGA [CACACA_site9157]", "gcPBM binding intensity (ln)": "10.4 ± 0.33"}, {"sequence": "TAATTATTTGCCCTTACTCTGAACATTCGGAATTTA [CACACA_negctrl_site1278]", "gcPBM binding intensity (ln)": "10.2 ± 0.21"}, {"sequence": "GTATGAAATTATAATAGTACATATAAATAAAAAAAA [XGTACX_site8955]", "gcPBM binding intensity (ln)": "11.1 ± 0.64"}, {"sequence": "TATATATAATATATATATATGGAAATTCTTTTAAAT [XGTACX_negctrl_site50]", "gcPBM binding intensity (ln)": "9.83 ± 0.38"}, {"sequence": "TGTATTATATGTAAATGTACATTTAATATTTTATAT [XGTACX_site4461]", "gcPBM binding intensity (ln)": "11 ± 0.51"}, {"sequence": "TACGGTAAATAGTGTTGTACGATACAATTGTTTTCT [XGTACX_site8118]", "gcPBM binding intensity (ln)": "10.9 ± 0.42"}, {"sequence": "AAAATAAATAAATAAATATATATATATATATATATA [TGCATGCA_negctrl_site558]", "gcPBM binding intensity (ln)": "9.99 ± 0.78"}, {"sequence": "AAGGGGAAAAAAAAAAGTACACAAACATAGGATAAT [XGTACX_site377]", "gcPBM binding intensity (ln)": "11.7 ± 1"}]}]}
